Some of the results follow. The list includes weakly bound sequences.

This note sets out measurements from publication PMC12820563.

The assay has as its target T1, MBP-FoxP3dN (UniProt Q99JB6).
T1 sequence: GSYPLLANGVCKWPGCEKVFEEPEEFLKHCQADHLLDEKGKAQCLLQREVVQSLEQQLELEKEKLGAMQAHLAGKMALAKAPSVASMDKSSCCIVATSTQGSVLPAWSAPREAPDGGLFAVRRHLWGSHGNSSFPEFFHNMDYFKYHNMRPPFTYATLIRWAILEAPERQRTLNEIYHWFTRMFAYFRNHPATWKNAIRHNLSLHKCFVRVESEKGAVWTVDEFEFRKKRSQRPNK
As to the kind of experiment: PD-seq (MBP pull-down with sequencing). To be noted: 20 mM Tris-HCl pH 7.5, 100 mM NaCl, 1.5 mM MgCl2, 0.4 uM protein, 0.1 uM dsDNA library, 30 min, room temperature, amylose pull-down; high values mean tight binding; double strand, one strand shown.
As to “GATGATTGTTCTCCCAGCTGATGAATTTTATGATTCGAGTAAACAAATTTTCCTAATCTTTCTGTTCAAGCGCCATCTAC”, the binding signal (RPM ratio (pull-down/input)) was 3.35.

Take “GATGATTGTTCTCCCAGCTGATGAATTGAGGCTCTCGAGTAAACAAATTTTCCTAATCTTTCTGTTCAAGCGCCATCTAC”: the binding signal (RPM ratio (pull-down/input)) was 0.908.

In the case of “GATGATTGTTCTCCCAGCTGATGAATTTCCCAGCTCGAGTAAACAAATTTTCCTAATCTTTCTGTTCAAGCGCCATCTAC”, the binding signal (RPM ratio (pull-down/input)) was 0.241.

As to “GATGATTGTTCTCCCAGCTGATGAATTAAGATGTTCGAGTAAACAAATTTTCCTAATCTTTCTGTTCAAGCGCCATCTAC”, the binding signal (RPM ratio (pull-down/input)) was 0.986.

With “GATGATTGTTCTCCCAGCTGATGAATTCAGTTACTCGAGTAAACAAATTTTCCTAATCTTTCTGTTCAAGCGCCATCTAC”, the binding signal (RPM ratio (pull-down/input)) came to 1.55.

For “GATGATTGTTCTCCCAGCTGATGAATTCTGATTATCGAGTAAACAAATTTTCCTAATCTTTCTGTTCAAGCGCCATCTAC”, the binding signal (RPM ratio (pull-down/input)) turned out to be 3.08.

“GATGATTGTTCTCCCAGCTGATGAATTACCCCTCTCGAGTAAACAAATTTTCCTAATCTTTCTGTTCAAGCGCCATCTAC”: the binding signal (RPM ratio (pull-down/input)) worked out at 0.33.

With “GATGATTGTTCTCCCAGCTGATGAATTTTGACCATCGAGTAAACAAATTTTCCTAATCTTTCTGTTCAAGCGCCATCTAC”, the binding signal (RPM ratio (pull-down/input)) stood at 0.551.

In the case of “GATGATTGTTCTCCCAGCTGATGAATTATAGCATTCGAGTAAACAAATTTTCCTAATCTTTCTGTTCAAGCGCCATCTAC”, the binding signal (RPM ratio (pull-down/input)) was determined as 5.46.

With “GATGATTGTTCTCCCAGCTGATGAATTCTGGTGTTCGAGTAAACAAATTTTCCTAATCTTTCTGTTCAAGCGCCATCTAC”, the binding signal (RPM ratio (pull-down/input)) amounted to 1.18.

For “GATGATTGTTCTCCCAGCTGATGAATTTAATCGATCGAGTAAACAAATTTTCCTAATCTTTCTGTTCAAGCGCCATCTAC”, the binding signal (RPM ratio (pull-down/input)) came out at 0.286.

With “GATGATTGTTCTCCCAGCTGATGAATTCGTTGTTTCGAGTAAACAAATTTTCCTAATCTTTCTGTTCAAGCGCCATCTAC”, the binding signal (RPM ratio (pull-down/input)) was found to be 5.15.

Regarding “GATGATTGTTCTCCCAGCTGATGAATTCTCTCTATCGAGTAAACAAATTTTCCTAATCTTTCTGTTCAAGCGCCATCTAC”, the binding signal (RPM ratio (pull-down/input)) turned out to be 0.292.

Take “GATGATTGTTCTCCCAGCTGATGAATTATACCGTTCGAGTAAACAAATTTTCCTAATCTTTCTGTTCAAGCGCCATCTAC”: the binding signal (RPM ratio (pull-down/input)) worked out at 0.467.

As to “GATGATTGTTCTCCCAGCTGATGAATTGACGATCTCGAGTAAACAAATTTTCCTAATCTTTCTGTTCAAGCGCCATCTAC”, the binding signal (RPM ratio (pull-down/input)) is 0.395.

As for “GATGATTGTTCTCCCAGCTGATGAATTTCACAAATCGAGTAAACAAATTTTCCTAATCTTTCTGTTCAAGCGCCATCTAC”, the binding signal (RPM ratio (pull-down/input)) was found to be 0.237.

Consider “GATGATTGTTCTCCCAGCTGATGAATTCTCTGCCTCGAGTAAACAAATTTTCCTAATCTTTCTGTTCAAGCGCCATCTAC”, for which the binding signal (RPM ratio (pull-down/input)) was 0.284.

As for “GATGATTGTTCTCCCAGCTGATGAATTCCTAGTTTCGAGTAAACAAATTTTCCTAATCTTTCTGTTCAAGCGCCATCTAC”, the binding signal (RPM ratio (pull-down/input)) worked out at 0.31.
